Data reported in PubChem BioAssay AID485364 (National Center for Advancing Translational Sciences (NCATS), 2010).
Screen size: about 360,000 compounds; about 11,000 (3.1%) were called active. Inconclusive means that the source gave no clear call. Such entries were picked first, then a sample of the others. Calls come from the whole dose curve; as a rule, active = well fitted inhibition curve with a large enough effect; inconclusive = small, poorly fitted or top-dose-only effect; inactive = no such curve, though single readings can be large or run the other way. Potencies of inconclusive entries are left out as doubtful fits.
Note: nearly all actives have a fitted effect of over 60% in size.
Potency is the fitted concentration of half-maximal effect; tags give direction and shape of the fitted curve.

These molecules were tested against Schistosoma mansoni thioredoxin glutathione reductase (TGR) (UniProt Q962Y6) (assay: qHTS Assay for the Inhibitors of Schistosoma Mansoni Peroxiredoxins). Conditions: purified TGR, DTNB reduction, TNB absorbance 405 nm; series mostly up to 114 µM.
In short: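 TGR 20 nM + NADPH 100 uM (dispensed conc.), cpd preinc 15 min RT; start with NADPH (500 uM addition) then DTNB (15 mM addition). Kinetic TNB absorbance, 405 nm filter. Four-parameter Hill fit across titration.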
In the case of CCCCn1c(-c2ccco2)nc2ccccc2c1=O, the Potency is reported as active: 56.2 µM.
COc1ccc(C(=O)NCC2(c3ccc(OC)c(OC)c3)CCCC2)c(OC)c1 was tested, and the Potency was “inactive”.
In the case of Cc1ccc(-n2nc3c(=O)n(CC(=O)NCc4ccc(C)o4)nc(C)c3c2C)cc1, the Potency is reported as inconclusive [inhibitor, partial curve].
With CCC(C)(C)n1nnnc1C(c1cc2ccc(OC)cc2[nH]c1=O)N1CCc2ccccc2C1 (configuration not stated) the Potency was inconclusive [inhibitor, partial curve].
CCN(CC)C(=O)CSc1nnc(CNc2ccc(F)cc2)n1-c1ccccc1 was tested, and the Potency was inconclusive [inhibitor, full curve].
With CCOc1ccccc1NC(=O)CC(c1ccc(F)cc1)N1Cc2ccccc2C1=O (configuration not stated) the Potency was “inactive”.
In the case of COCCN(C(=O)CC1C(=O)NCCN1Cc1ccc(-c2ccccc2)cc1)C(C)C (configuration not stated), the Potency is reported as active: 39.8 µM.
In the case of CCOC(=O)C1=C(C)Nc2ncnn2C1c1cccnc1 (configuration not stated), the Potency is reported as inconclusive [inhibitor, partial curve, poor fit].
In the case of Cc1nnc(N2C(=O)C(O)=C(C(=O)c3ccco3)C2c2ccc(C(C)C)cc2)s1 (configuration not stated), the Potency is reported as inconclusive [inhibitor, full curve, poor fit].
COc1ccc(C(=O)c2nccc3cc(OC)c(OC)cc23)cc1OC was tested, and the Potency was inconclusive [inhibitor, partial curve].
For COc1ccc(Cn2c(C)nc3c(c(=O)c4ccccc4n3C)c2=O)cc1, the Potency was “inactive”.
For CCOCc1cn(CC(=O)c2ccc([N+](=O)[O-])cc2)c(C)nc1=N, the Potency was “inactive”.
With Cc1ccc(NC(=O)COc2ncnc3c(Cl)cc(Cl)cc23)cc1[N+](=O)[O-] the Potency was active: 4.47 µM.
In the case of CC(C)Nc1ccccc1, the Potency is reported as inconclusive [inhibitor, single point].
COc1ccc(N/C=C2\C(=O)CCc3c2oc2cc(Cl)c(O)c(Cl)c32)cc1 was tested, and the Potency was active: 35.5 µM.
With O=C1N=c2ccccc2=C/C1=C\c1c(O)[nH]c(=S)[nH]c1=O the Potency was active: 10 µM.
O=C(/C=C/c1ccco1)Oc1ccc(C(=S)N2CCOCC2)cc1 was tested, and the Potency was “inactive”.
For O=C(OCC(=O)N1CCN(S(=O)(=O)c2ccc(Cl)cc2)CC1)c1ccc([N+](=O)[O-])o1, the Potency was inconclusive [inhibitor, partial curve].
Nc1c(C(=O)c2ccc(Br)cc2)oc2ccccc12 was tested, and the Potency was “inactive”.
With CCC1OC23CCCCC2C(C#N)(C(=N)O3)C1(C#N)C#N (configuration not stated) the Potency was inconclusive [inhibitor, partial curve].
Cc1ccc(C)c(NC(=O)CCCn2nc(C)c3sc4ccccc4c3c2=O)c1 was tested, and the Potency was “inactive”.
For CCCSc1nc(C)c(-c2csc(C(C#N)=C3CCCC3)n2)cc1C#N, the Potency was inconclusive [inhibitor, single point].
For COC(=O)/C(=C/c1cn(C)c2ccccc12)[N+](=O)[O-], the Potency was inconclusive [inhibitor, partial curve].
With c1ccc(CSCc2cn3ccccc3n2)cc1 the Potency was “inactive”.
In the case of Cc1ccc(S(=O)(=O)Nc2cc3c(cc2N2CCOCC2)n(C)c(=O)n3C)c(C)c1, the Potency is reported as inconclusive [inhibitor, partial curve].
CC1=NN(c2cccc(C(=O)O)c2)C(=O)/C1=C\C=C\c1ccco1 was tested, and the Potency was inconclusive [inhibitor, full curve].
O=C(NC1CCCC1)c1ccc(CS(=O)(=O)c2ccc(Br)cc2)o1 was tested, and the Potency was inconclusive [inhibitor, partial curve].
In the case of CN(CC(=O)Nc1ccncc1)S(=O)(=O)c1ccc(Cl)cc1, the Potency is reported as inconclusive [inhibitor, single point].
With CCOc1ccccc1NC(=O)CC1Nc2ccccc2NC1=O (configuration not stated) the Potency was inconclusive [inhibitor, partial curve].
With Brc1ccccc1CNCCc1ccc2c(c1)OCO2 the Potency was inconclusive [inhibitor, single point].
For COc1ccc(C(C(=O)NCC2CCCO2)N(C(=O)CNC(=O)c2cccs2)c2ccc(C)cc2)cc1OC (configuration not stated), the Potency was “inactive”.
With Cc1cccc2cc(/C=C/C(=O)c3ccco3)c(Cl)nc12 the Potency was active: 7.94 µM.
With Cc1cccn2c(=O)c3cc(C#N)c(=O)n(CCCN4CCOCC4)c3nc12 the Potency was active: 25.1 µM.
CCn1c(SCC(=O)Nc2nc3c(s2)CCCC3)nc2c1c(=O)n(C)c(=O)n2C was tested, and the Potency was inconclusive [inhibitor, full curve].
COc1ccccc1C(=O)Oc1cc(N)n(S(=O)(=O)c2ccccc2)n1 was tested, and the Potency was inconclusive [inhibitor, partial curve].
With Cc1oc(-c2ccccc2)cc1C(=O)Nc1cccc(C(=O)O)c1 the Potency was inconclusive [inhibitor, partial curve].
With S=C(NN=C1CCCCCC1)Nc1ccc(Cl)cc1 the Potency was “inactive”.
CCN1CCN(C(=O)Cc2coc3cc(C)cc(C)c23)CC1 was tested, and the Potency was inconclusive [inhibitor, partial curve].
With O=C(NC(=S)NCCc1ccc(Cl)cc1)c1ccco1 the Potency was inconclusive [inhibitor, partial curve, poor fit].
CCOC1OC2C(CO)OC(n3cnc4c(N)ncnc43)C2O1 (configuration not stated) was tested, and the Potency was “inactive”.
CCCCn1c(O)c(C=NCCN2CCCCC2)c(=O)[nH]c1=O was tested, and the Potency was inconclusive [inhibitor, full curve].
In the case of COc1cccc(C2Oc3ccccc3C3CC(c4cccs4)=NN32)c1 (configuration not stated), the Potency is reported as inconclusive [inhibitor, partial curve].
In the case of O=C(CNC(=O)c1ccccc1Cl)N/N=C/C=C/c1ccccc1, the Potency is reported as “inactive”.
In the case of CC(C)CC(=O)Nc1ccc(C(=O)CN2CCN(c3ccc(O)cc3)CC2)cc1, the Potency is reported as active: 5.62 µM.
Cc1ccc(C(=O)CC2(O)C(=O)N(CCc3ccccc3)c3ccc(Br)cc32)o1 (configuration not stated) was tested, and the Potency was inconclusive [inhibitor, partial curve].
In the case of CCC(=O)NC1=C(Cl)C(=O)C(NC(=O)CC)=C(Cl)C1=O, the Potency is reported as active: 0.224 µM.
In the case of COc1ccc(NC(=O)Cn2c([N+](=O)[O-])cnc2C)cc1Cl, the Potency is reported as inconclusive [inhibitor, partial curve, poor fit].
